# Measurements as given in the supplement of paper PMC12632987.
# Over roughly 4,500 sequences, “median log2 fold change of GCK-ALFA target abundance (FLAG IP / Myc IP barcode read proportion)” has its median near 0.078; the lowest 2% begin near -0.6. The list shows a part of the results.
# B1: GBRAP_39_5662 (protein)
# chain: DEEEENELLFEYYLALAEKERIERGISDEEMIEEGKKLLTELAKEHPEIKEEVEALLKEVDKGDEDVGLAAYGIALLYQEGTPLEEIKEHIEKLLKYVKS
# B2: GBRAP_160_4410 (protein)
# chain: SEELKKTAEEILEAVEEELELLLELGKIDPKAAAGLLEGTILLEVFEDDSLTEEEEEKLEALAKELAATLEELLKKEGELTEEIKERLLELARKGLEEIL
# B3: GBRAP_160_4346 (protein)
# chain: SEAAEELIKKVKEATEKVIEELDKVSVEEAAVIAAGEFGAVAMEAALDERYSDEMVDVVIDAMDEIIKFLKENKDASVEELKKGIKEITEKAIKKIKEIA
# B4: GBRAP_160_4331 (protein)
# chain: MEKFEKLIEYIDEEFERTKELIEGESIEQVKVLIRGTFGEIAMEFSEEESISDELVDFVIEVEDETIKTLEENPDLSLEEIKELIEEAREKIKEALKKEA
# B5: GBRAP_184_5168 (protein)
# chain: MIEEKEIEVKNKEEAKKKMEEIKEEVKDKKAELYVIVKTEKLTKEIAETIIEELKKMKEEGYVKKIVLDITGEIDEETLDHAIELADEAGIQLVIAIDEE
# B6: GBRAP_160_4830 (protein)
# chain: SEKLEKFKKFIDEEFEEAIEMMKGQTTEERAAIVAVTFGEIIMEGEELGVFSDELEDFIDEVEDEVVATILANPDLTDEELEELLNEAREKIIEALEKDS
# B7: GBRAP_128_3473 (protein)
# chain: SVEEVVKETEKIMEEIIKADLEEARKLAEELFARLSTKDLESVEAAVEVIESHLPKLSAEKLEILAEVADAARPAFDPEKAALLADLASTALLLAEEKEE
# B8: GBRAP_128_3321 (protein)
# chain: MDKEKLAEAKKLAEEMVKASIEEAKELTKKLVALLATATPEEREEIAEIFKEEMKKLSAEKLEAVADTLREQMPTLDPETANVVADLEVEALNEAEEKEE
# B9: GBRAP_160_4142 (protein)
# chain: KEELEKLIKEIREIAEEAIELIKDSSLEEAKTIAKVALGEIELLVSTNPAVSEETEEKVGEITREAEEQLDEREDATNEEIIALLREAAEKIIEELEKEL
# B10: GBRAP_125_3013 (protein)
# chain: GLEAAVAALERLGRALGLSEDEVAELGREARAHGVKQALIALFLAEGWEENAELAAQLTEAEAAAALARLVAALDANPDLTPEEVRALALAILREAVAAS
# B11: GBRAP_117_2570 (protein)
# chain: SELREKAKKEVEEHVERLAKRLEEMKSLSPEEQEKARAEMLEETYELAKKLIEELGKEETLELWEEAIAPLDAETYFEISLLWEDAFNRIKEEEEKEKKE
# B12: GBRAP_160_4867 (protein)
# chain: SEKLARALAIVQEARDEALAAIAEAPASDRAAIAAAIAGEAIQQLIEEGLVSDELEDKLMAIVDALRAALEANADASVAEWQALVQAAFDAMEAAIKEMM
# B13: GBRAP_128_3421 (protein)
# chain: SMEEKVEKVKELLEEMLTADPATQKELAREIMQLILESDLETAEAMVEVILEMLPKFTAEQLDILADAGREQLSKFSPEKQELVAEVIVEALNLAEELEE
# B14: GBRAP_184_5023 (protein)
# chain: KILEEELTVSNVEEARAKLAEVAERAKASKADLILLIKVENPTEEILRAIVEGLGAIKAAGYAEKITVGIDADLTEEQIDFVLDGFDAAGVNVTVAISEK
# B15: GBRAP_160_4552 (protein)
# chain: SPFVERLVAYARERIDEALELGKEVNPEDALAVLRVAAGDVIMEVMEDPRATDEMEDAVAEVMDALVEDFEARADAPMEEWRALAEEHLAELREKLEALA
# B16: GBRAP_35_5568 (protein)
# chain: SFDETAADMMVNTIEALTEAVDDIDPKTLLTITKQITEAAKKLVEEIKNNKKALEKILEALEKLLKALEKRGLDNPDIKAAAEAVKEAIEKAKEAIKKAE
# B17: GBRAP_184_5246 (protein)
# chain: KVIDEEITASTKEEVIEKLDAVRDKAKAEGAKVDLILTLTNATKELVETAMAKIKELRAEGLLNRVEVIIDNYEDEETLELAFDLAHEVGVDALAYDEKE
# B18: GBRAP_52_5875 (protein)
# chain: MLEEALKLLEEAVKAEKAGKEEELEKILKEIVEKFSEETILEAVKELAEKVLGKSLEEAEAFFRTVERLADILLEAGKSEEIASLMEAIAGATLYKVEQK
# B19: GBRAP_160_4243 (protein)
# chain: SERLEEIREDIEEEAEVALEALKEVPKSQWGAVLRAMAGDIVQIVIEDPNMTEETEEEVDELADELVARLLAAKDASPEELERLLREGVERIIEKIEESL
# Molecular target: GABARAP, O95166
# Sequence (O95166 whole entry, the tested form may be a part): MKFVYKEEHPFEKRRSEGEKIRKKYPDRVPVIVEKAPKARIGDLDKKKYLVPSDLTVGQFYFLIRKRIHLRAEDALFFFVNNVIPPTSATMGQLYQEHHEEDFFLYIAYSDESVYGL
# Assay: median log2 fold change of GCK-ALFA target abundance (FLAG IP / Myc IP barcode read proportion) (log2 ratio); each designed protein is fused to an ALFA-tag nanobody in HEK293 cells to bring the named protein to FLAG-tagged glucokinase (GCK); Myc marks an untargeted standard; higher = target protein stabilised (more abundant)
# Details: target protein: 3xFLAG-MCP-GCK-ALFA reporter; HEK293 landing pad (RPLP)
# Outline: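 Sequencing of reverse-transcribed, amplified circular RNA barcodes from anti-FLAG and anti-Myc immunoprecipitates provided the readout for an ALFA-nanobody-fused binder library recombined into HEK293 landing-pad cells. Those cells were induced with 2 μg mL^−1 doxycycline, transfected with a plasmid expressing a FLAG-tagged target and a Myc-tagged standard, and lysed after 48 h. Target abundance is the per-binder median log2 ratio of FLAG to Myc barcode read proportions. Only barcodes at a proportion of ≥10^−7 in both replicates and binders with ≥3 barcodes per replicate were kept, with a 10^−6 pseudocount added before the two replicates were pooled.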
row,Binder,median log2 fold change
1,B1,-0.103
2,B2,-0.231
3,B3,-0.162
4,B4,-0.223
5,B5,-0.0779
6,B6,-0.286
7,B7,0.0955
8,B8,0.43
9,B9,0.259
10,B10,0.196
11,B11,0.429
12,B12,0.176
13,B13,-0.0553
14,B14,0.0771
15,B15,-0.389
16,B16,0.0635
17,B17,0.283
18,B18,0.0947
19,B19,-0.152
